# Source: publication PMC4336329 (PLoS ONE, 2015)
# Screen size: about 310,000 compounds; about 2,200 (0.71%) showed an effect of 50% or more. Effects have a minus sign here. The list shows a part of the results.
# Molecular target: human ether-à-go-go-related gene (hERG) potassium channel (human, UniProt Q12809)
# Experiment: primary screen, population patch clamp on CHO cells stably expressing hERG
# human ether-à-go-go-related gene (hERG) potassium channel, sequence (Q12809 whole entry, looked up): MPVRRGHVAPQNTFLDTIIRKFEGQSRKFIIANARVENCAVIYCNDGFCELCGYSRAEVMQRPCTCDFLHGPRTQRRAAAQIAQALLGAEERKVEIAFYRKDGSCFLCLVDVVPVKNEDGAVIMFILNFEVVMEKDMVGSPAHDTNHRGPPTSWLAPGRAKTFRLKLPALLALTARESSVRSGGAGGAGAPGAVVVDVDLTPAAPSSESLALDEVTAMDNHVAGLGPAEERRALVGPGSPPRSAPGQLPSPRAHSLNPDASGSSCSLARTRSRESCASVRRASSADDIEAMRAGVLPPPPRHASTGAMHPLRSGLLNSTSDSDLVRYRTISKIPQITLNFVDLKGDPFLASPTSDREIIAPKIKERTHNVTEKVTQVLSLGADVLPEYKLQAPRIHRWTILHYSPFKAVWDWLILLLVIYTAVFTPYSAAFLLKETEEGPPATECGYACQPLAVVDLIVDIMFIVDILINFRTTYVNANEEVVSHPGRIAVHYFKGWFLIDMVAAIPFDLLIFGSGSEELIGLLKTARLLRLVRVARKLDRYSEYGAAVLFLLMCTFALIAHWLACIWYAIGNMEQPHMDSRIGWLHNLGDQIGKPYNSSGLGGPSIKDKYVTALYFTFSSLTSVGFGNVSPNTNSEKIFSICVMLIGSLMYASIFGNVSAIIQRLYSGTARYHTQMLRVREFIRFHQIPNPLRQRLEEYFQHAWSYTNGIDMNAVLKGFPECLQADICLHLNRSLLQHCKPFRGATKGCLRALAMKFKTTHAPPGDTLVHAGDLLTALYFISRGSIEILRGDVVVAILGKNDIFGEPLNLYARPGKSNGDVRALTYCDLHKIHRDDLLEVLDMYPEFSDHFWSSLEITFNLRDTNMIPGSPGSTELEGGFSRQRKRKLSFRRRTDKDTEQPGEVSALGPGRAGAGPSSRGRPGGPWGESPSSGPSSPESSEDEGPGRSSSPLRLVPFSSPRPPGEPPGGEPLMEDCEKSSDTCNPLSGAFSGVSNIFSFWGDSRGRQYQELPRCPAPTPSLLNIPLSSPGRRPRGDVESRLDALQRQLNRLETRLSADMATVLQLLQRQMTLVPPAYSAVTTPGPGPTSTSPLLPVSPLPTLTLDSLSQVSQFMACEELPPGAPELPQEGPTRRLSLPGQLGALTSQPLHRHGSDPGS
row,SMILES,"hERG current change (%, negative = inhibition) at 1uM"
1,CCOC(=O)C(C(=O)OCC)C(CC(=O)C1CC1)c1ccccc1 (stereo not shown),7.69%
2,CC(C)CC(=O)c1c[nH]c(C(=O)NCc2cccnc2)c1,5.75%
3,CCCCOc1ccc(CN2CCCCC2)cc1,2.91%
4,CCCCN(CC)C(=O)c1ccc(-c2ccccc2)cc1,10.3%
5,COc1ccc(CNC(=O)CSc2ccsc2[N+](=O)[O-])cc1,4.67%
6,CC(NC(=O)CSc1cccc(C(F)(F)F)c1)c1ccccc1 (stereo not shown),5.45%
7,CSc1nc2nc3c(cc2c(=O)n1-c1cccc(C)c1)COC(C)(C)C3,12.6%
8,CCOC(=O)N1CCN(C(=O)CSCc2nc(-c3ccccc3F)oc2C)CC1,5.06%
9,CCn1c(COc2cccc(OC)c2)nnc1SCC(=O)Nc1ccccc1C(=O)OC,9.55%
10,COc1ccccc1NC(=O)N(CCN1CCCC1)Cc1cc2cc(C)ccc2[nH]c1=O,-14.2%
11,COc1ccccc1-n1c(SCC(=O)N2CCCC2)nnc1-c1ccccc1,2.76%
12,COc1ccc(/C(C)=N/NC(=O)Cn2nc([N+](=O)[O-])cc2C)cc1,14.4%
13,Cn1c(SCC(=O)NCC2CCCO2)ncc(C(=O)Nc2ccccc2)c1=O (stereo not shown),1.64%
14,Cc1nnsc1C(=O)NNc1ccc(C(C)(C)C)cc1,13.9%
15,Cc1cc(C)c(OCCNC(=O)c2ccccc2Sc2ccccc2C#N)c(C)c1,9.8%
16,CCOc1ccc(S(=O)(=O)N2CCN(CC)CC2)cc1NC(=O)c1ccccc1F,2.07%
17,CCOc1ccc(N2C(=O)CC(NCc3ccc(F)cc3)C2=O)cc1 (stereo not shown),0.609%
18,CC1(C)Cc2c(sc(NC(=O)COc3ccc(Cl)cc3)c2C#N)C(C)(C)N1,12.8%
19,C/C=C(\C)C(=O)NNC(=O)c1sc(-c2ccccc2)nc1C,15.9%
20,O=C(NCc1ccncc1)C(F)(F)C(F)(F)C(=O)NCc1ccncc1,-1.57%
21,COC(OC)c1ccc(C#N)c(SCc2ccc(C)cc2)n1,8.89%
22,CC(C)Cc1ccc(C(C)C(=O)O)cc1 (stereo not shown),4.26%
23,COc1cc(COCC(O)CN2CCCCC2C)cc(OC)c1OC.Cl (stereo not shown),14.4%

row,SMILES,"hERG current change (%, negative = inhibition) at 1uM"
1,CCOC(=O)C1(CCOc2ccccc2)CCN(Cc2cccc(F)c2)CC1,-7.5%
2,Cc1ccc(NC(=O)c2oc3c(c2C)C(=O)CC(C)(C)C3)cc1,12.5%
3,CC(C)c1ccc(OCC(=O)NNC(=S)NC(=O)C2CC2)cc1,10.7%
4,Cc1cc(C)nc(SCC(=O)OCN2C(=O)c3ccccc3C2=O)n1,-6.32%
5,O=C1/C(=C/c2ccccn2)SC(=S)N1Cc1ccccc1,12.4%
6,CC(C)n1nnnc1-c1ccc(Cl)cc1,13.6%
7,Cc1cccc(NC(=O)c2cnc3scc(C)n3c2=O)c1,7.85%
8,C/C(=N\NC(=O)C(N)=O)c1ccc2c(c1)OCCO2,11.6%
9,CC1CCCCN1C(=S)Nc1ccc(OC(F)F)cc1 (stereo not shown),6.04%
10,C=CCn1c(P(=O)(O)c2ccccc2)nc2ccccc21,11.3%
11,CC1(C)C2CCC1(CS(=O)(=O)N1CCCc3ccccc31)C(=O)C2 (stereo not shown),3.23%
12,CN1CCN(S(=O)(=O)c2ccc(N3CCN(C(c4ccccc4)c4ccccc4)CC3)nc2)CC1,18.9%
13,CC(=O)Nc1ccc(N/C=C2/CCCC2=O)cc1,11.7%
14,COc1ccc(Nc2oc(-c3ccccc3Cl)nc2C#N)cc1,3.38%
15,FC(F)=C(F)CCSc1ncn[nH]1,6.42%
16,CC(C)C(OC(=O)C1=Cc2ccccc2OC1)C(=O)NC1CCCC1 (stereo not shown),10.6%
17,CC1CCC2(CC1)NC(=O)N(CC(=O)NCc1ccc(F)cc1)C2=O (stereo not shown),0.473%
18,COC(=O)C(O)(c1ccc(N(C)C(=O)c2cccs2)cc1)C(F)(F)F (stereo not shown),8.46%
19,CCN(c1ccccc1)S(=O)(=O)c1ccc(C(=O)Oc2ccc(C(C)=O)cc2)cc1,6.7%
20,Cc1cc(NC(=O)C2CC2)ccc1NC(=O)c1cccs1,12.7%
21,COc1ccc(C(CC(=O)c2ccc(O)cc2)S(=O)(=O)c2ccc(C)cc2)cc1 (stereo not shown),12.3%
22,CCCCn1nnnc1NCc1cc(OC)c(OC)cc1OC,6.58%
23,COc1ccc(C)cc1Nc1n[n+](-c2ccccc2)c(-c2ccc(SC)cc2)s1.[Cl-],10.6%

row,SMILES,"hERG current change (%, negative = inhibition) at 1uM"
1,O=C(CCCc1ccccc1)NC12CC3CC(CC(C3)C1)C2,9.41%
2,CC1CCN(C(=O)c2[nH]cnc2C(=O)N2CCN(c3ccccc3)CC2)CC1,12.2%
3,c1ccc2c(c1)CNc1ccccc1C2,10.1%
4,CCOc1cc(C(=O)N2CCc3cc(OC)c(OC)cc3C2)ccc1OC(F)F,-13%
5,COc1ccc(CCNC(=O)C(=O)NCCC2CCCCN2S(=O)(=O)c2cccs2)cc1 (stereo not shown),8.49%
6,CC(C)Sc1nnc([C@@H](N)Cc2c[nH]c3ccccc23)o1.Cl,15.3%
7,CC(C)(C)OC(=O)N1CCC(C(=O)N[C@@H](Cc2c[nH]c3ccccc23)C(=O)O)CC1,14.8%
8,Cl.OC(COCc1ccccc1)CN1CCc2ccccc2C1 (stereo not shown),5.42%
9,CCCCN1C(=O)C2C(C(=O)Nc3cccc(OC)c3)C3C=CC2(O3)C1C(=O)NC1CCCCC1C (stereo not shown),10.9%
10,Cc1ccccc1C(=O)N1CCN(c2ncccn2)CC1,13.7%
11,C/C(Cc1ccccc1)=N\NC(=O)CNC(=O)c1ccc(Cl)cc1,3.68%
12,COc1ccc(S(=O)(=O)NCC2CCCN(C(=O)CN3CCCCC3)C2)cc1 (stereo not shown),-4.03%
13,CCSC(SCC)[C@H](O)[C@@H](O)[C@H](O)[C@H](O)CO,6.8%
14,C=CCn1c(COc2ccc(F)cc2)nnc1SCC(=O)NC1CCCC1,-0.981%
15,CCCC(=O)Nc1ccc(NC(=O)c2ccccn2)cn1,4.46%
16,CCOC(=O)c1c(NC(=O)C2C3C=CC(CC3)C2C(=O)O)sc(C)c1CC (stereo not shown),4.12%
17,CC(=O)c1ccc(NC(=O)/C(Cl)=C/c2ccccc2)cc1,15.1%
18,Cc1nc(-c2ccccn2)sc1C(=O)O,13.5%
19,CC(=O)Nc1ccc(C(=O)N/N=C/c2cc(Br)cc(Br)c2O)cc1,12.1%
20,Cc1ccc(NC2=NC(C(=O)Nc3ccc(C)c(C)c3)CC(=O)N2)cc1 (stereo not shown),4.67%
21,CN1CCN(C(=O)c2cccn(Cc3cccc(Cl)c3)c2=O)CC1,12.8%
22,Cc1ccc(CN(c2ccc(C(=O)NCC3CCCO3)cc2)S(C)(=O)=O)cc1 (stereo not shown),6.06%
23,CN(C)c1[nH]c(=O)c(C#N)c2c1CCN2Cc1ccccc1,6.8%

row,SMILES,"hERG current change (%, negative = inhibition) at 1uM"
1,CCN1C(=O)NC(=O)/C(=C\c2cn(CC(=O)N3CCCCC3C)c3ccccc23)C1=O (stereo not shown),16.4%
2,CN(Cc1ccccc1)C(=O)COC(=O)c1ccccc1Nc1ccccc1,17.7%
3,CN1CCc2nc3sc(C(=O)C45CC6CC(CC(C6)C4)C5)c(N)c3cc2C1,7.67%
4,O=C(Nc1ccsc1C(=O)O)c1ccc(Cl)cc1,11.5%
5,COc1cc(CC(=O)OCC(=O)N2CCCCC2C)cc(OC)c1OC (stereo not shown),4.36%
6,COc1ccc(-c2nc(/C=C3\C(C)=Nc4ccccc43)c(O)o2)cc1,-3.55%
7,COc1cccc(-c2noc(-c3cccnc3)n2)c1,9.47%
8,COc1ccccc1-c1ccc(=O)n(CC(=O)Nc2ccc(C(=O)N3CCCC3)cc2)n1,0.634%
9,C[C@H](NC(=O)c1nc[nH]c1C(=O)NCCCCC[NH3+])C(=O)OC(C)(C)C.[Cl-],18.3%
10,Cc1cccn2c(=O)c(/C=C(\C#N)S(=O)(=O)c3ccc(Cl)cc3)c(N3CCC(C(N)=O)CC3)nc12,-16%
11,Cc1scc(-c2n[nH]c(=S)n2C(C)c2ccccc2)c1C (stereo not shown),8.59%
12,CC(Oc1ccccc1)c1ccnc2nc(N3CCOCC3)nn12 (stereo not shown),10.7%
13,CC1CN(C(=O)CCC(=O)N2CCCCC2)c2cc(Cl)ccc2O1 (stereo not shown),6.37%
14,O=C(N/N=C/c1cccc([N+](=O)[O-])c1)c1cc[n+](CCO)cc1.[Cl-],16%
15,COc1ccccc1NC(=S)NC(=O)/C=C/c1cccs1,12.3%
16,O=c1cc(O)c2ccccc2n1Cc1ccccc1Cl,3.63%
17,O=C(Nc1ccc(Cl)cc1)c1cc(Br)ccc1OCC(=O)N1CCOCC1,9.68%
18,O=C(O)c1ccc(OCc2cn3ccccc3n2)cc1,9.46%
19,O=C1NC(=O)C2(Cc3ccccc3N3CCOCC32)C(=O)N1c1ccccc1 (stereo not shown),0.829%
20,Cc1cccc(NC(=O)N2C[C@H]3C[C@@H](C2)c2cccc(=O)n2C3)c1,2.69%
21,COCCN1CCN(C(=O)c2ccc3oc(CCCc4ccccc4)nc3c2)CC1,9.42%
22,CC(C)CNC(=O)c1ccc(C2SCC(=O)N2Cc2ccccc2)cc1 (stereo not shown),6.56%
